Consider 47 compounds from the supplement of paper PMC9938546.

Where a name gives a salt, the structure may show the parent alone. The list shows a part of the results. Many values rest on one well or one pass, so single values are uncertain.
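Also: viability estimated indirectly by image-based GFP quantification with live-cell imaging of the constitutively GFP-expressing human colorectal cancer line, no immune cells added.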

For this experiment, the system named is HCT116-GFP. Put plainly: HCT116-GFP viability (GFP intensity) relative to untreated control, monoculture; higher = less cancer cell killing. The conditions noted are these: culture: HCT116-GFP monoculture; 10 µM; 72 h.
Turning to `Cc1nc2n(c(=O)c1CCN1CCC(c3noc4cc(F)ccc34)CC1)CCCC2` [Risperidone], the HCT116-GFP viability came out at 73.5%.

`CNCCC(Oc1ccc(C(F)(F)F)cc1)c1ccccc1` (configuration not stated) [Fluoxetine hydrochloride]: the HCT116-GFP viability is 83%.

For the compound `CCN1CC(CCN2CCOCC2)C(c2ccccc2)(c2ccccc2)C1=O` (configuration not stated) [Doxapram hydrochloride], the HCT116-GFP viability stood at 79.7%.

In the case of `O=C(O)c1cc(-c2ccc(F)cc2F)ccc1O` [Diflunisal], the HCT116-GFP viability is 102%.

For the compound `CCCCNC(=O)NS(=O)(=O)c1ccc(C)cc1` [Tolbutamide], the HCT116-GFP viability was 92.9%.

Regarding `CC(=O)[C@H]1CC[C@H]2[C@@H]3C[C@H](C)C4=CC(=O)CC[C@]4(C)[C@H]3[C@@H](O)C[C@]12C` [Medrysone], the HCT116-GFP viability was 105%.

In the case of `CCOC(=O)OC(C)OC1=C(C(=O)Nc2ccccn2)N(C)S(=O)(=O)c2ccccc21` (configuration not stated) [Ampiroxicam], the HCT116-GFP viability came out at 15.4%.

In the case of `O=S(=O)(O)CCS` [Mesna], the HCT116-GFP viability is 79.1%.

For the compound `CCn1cc(C(=O)O)c(=O)c2cnc(N3CCCC3)nc21` [Piromidic acid], the HCT116-GFP viability is 101%.

As to `CC(C)(C)NC[C@H](O)c1ccc(O)c(CO)c1` [Levalbuterol hydrochloride], the HCT116-GFP viability amounted to 112%.

With `Nc1nc(=O)c2c([nH]1)NC[C@@H](CNc1ccc(C(=O)N[C@@H](CCC(=O)O)C(=O)O)cc1)N2C=O` [Folinic acid calcium salt], the HCT116-GFP viability is 139%.

Turning to `COc1ccc2cc([C@@H](C)C(=O)O)ccc2c1` [(R) -Naproxen sodium salt], the HCT116-GFP viability stood at 91%.

As for `CC1(C)NC(=O)N(c2ccc([N+](=O)[O-])c(C(F)(F)F)c2)C1=O` [Nilutamide], the HCT116-GFP viability came out at 96.9%.

Take `COC(=O)[C@@H]1[C@H]2C[C@H]3c4[nH]c5ccccc5c4CCN3C[C@@H]2CC[C@@H]1O` [Yohimbine hydrochloride]: the HCT116-GFP viability was determined as 95.1%.

Take `CCCCC(CC)CNC(=N)NC(=N)NCCCCCCNC(=N)NC(=N)NCC(CC)CCCC` (configuration not stated) [Alexidine dihydrochloride]: the HCT116-GFP viability came to 0.00913%.

Consider `CCCCOc1cc(C(=O)NCCN(CC)CC)c2ccccc2n1` [Dibucaine], for which the HCT116-GFP viability was 94.5%.

As to `O=C1CCc2cc(OCCCCc3nnnn3C3CCCCC3)ccc2N1` [Cilostazol], the HCT116-GFP viability stood at 74.1%.

`CCS(=O)(=O)CCn1c([N+](=O)[O-])cnc1C` [Tinidazole]: the HCT116-GFP viability stood at 108%.

Take `CCC1=C(C)CN(C(=O)NCCc2ccc(S(=O)(=O)NC(=O)N[C@H]3CC[C@H](C)CC3)cc2)C1=O` [Glimepiride]: the HCT116-GFP viability was determined as 97.4%.

As for `CN(C)CCOC(=O)COc1ccc(Cl)cc1` [Meclofenoxate hydrochloride], the HCT116-GFP viability came to 101%.

For `Brc1c(NC2=NCCN2)ccc2nccnc12` [Brimonidine L-Tartrate], the HCT116-GFP viability stood at 85.8%.

For the compound `CCCc1nc(C(C)(C)O)c(C(=O)O)n1Cc1ccc(-c2ccccc2-c2nnn[nH]2)cc1` [Olmesartan], the HCT116-GFP viability was determined as 90.7%.

Turning to `OC(CCN1CCCCC1)(c1ccccc1)C1CCCCC1` (configuration not stated) [Trihexyphenidyl-D,L Hydrochloride], the HCT116-GFP viability worked out at 98.5%.

Consider `N=C(N)N/N=C/c1c(Cl)cccc1Cl` [Guanabenz acetate], for which the HCT116-GFP viability worked out at 91.3%.

Regarding `CN(CCOc1ccc(CC2SC(=O)NC2=O)cc1)c1ccccn1` (configuration not stated) [Rosiglitazone Hydrochloride], the HCT116-GFP viability worked out at 80.7%.

As to `CCC(=O)OCC(=O)[C@@]1(OC(=O)CC)[C@H](C)C[C@H]2[C@H]3[C@H]([C@@H](O)C[C@@]21C)[C@@]1(C)C=CC(=O)C=C1C[C@H]3Cl` [Alclometasone dipropionate], the HCT116-GFP viability was 108%.

Turning to `Nc1cc(-c2ccncc2)c[nH]c1=O` [Amrinone], the HCT116-GFP viability was 98.1%.

As for `COc1ccc(C[C@@H]2c3cc(OC)c(OC)cc3CC[N@+]2(C)CCC(=O)OCCCCCOC(=O)CC[N@@+]2(C)CCc3cc(OC)c(OC)cc3[C@H]2Cc2ccc(OC)c(OC)c2)cc1OC` [Cisatracurium besylate], the HCT116-GFP viability turned out to be 83.2%.

With `CC(N)C12CC3CC(CC(C3)C1)C2` (configuration not stated) [Rimantadine Hydrochloride], the HCT116-GFP viability worked out at 107%.

Turning to `CN(C)[C@@H]1C(O)=C(C(N)=O)C(=O)[C@@]2(O)C(O)=C3C(=O)c4c(O)ccc(Cl)c4[C@@H](O)[C@H]3C[C@@H]12` [Demeclocycline hydrochloride], the HCT116-GFP viability turned out to be 101%.

With `O=C1c2ccccc2S(=O)(=O)N1CCCCN1CCN(c2ncccn2)CC1` [Ipsapirone], the HCT116-GFP viability was found to be 98.8%.

As to `Cn1c([N+](=O)[O-])cnc1COC(N)=O` [Ronidazole], the HCT116-GFP viability amounted to 94.9%.

In the case of `N[C@@H](C(=O)N[C@@H]1C(=O)N2C(C(=O)O)=C(Cl)CS[C@H]12)c1ccccc1` [Cefaclor hydrate], the HCT116-GFP viability stood at 98.4%.

Take `COc1ccc(C(=O)NCc2ccc(OCCN(C)C)cc2)cc1OC` [Itopride]: the HCT116-GFP viability came out at 109%.

Turning to `CC(Oc1ccccc1)C(=O)N[C@@H]1C(=O)N2[C@@H]1SC(C)(C)[C@@H]2C(=O)O` (some centres not stated) [Phenethicillin potassium salt], the HCT116-GFP viability stood at 72.9%.

Take `CO/N=C(\C(=O)N[C@@H]1C(=O)N2C(C(=O)O)=C(C[N+]3(C)CCCC3)CS[C@H]12)c1csc(N)n1` [Cefepime hydrochloride]: the HCT116-GFP viability was found to be 75.1%.

Consider `CCOC(=O)[C@H](CCc1ccccc1)N[C@@H](C)C(=O)N1CCC[C@H]1C(=O)O` [Enalapril maleate], for which the HCT116-GFP viability stood at 95.3%.

Consider `CC1=C(CC(=O)O)c2cc(F)ccc2/C1=C\c1ccc([S+](C)[O-])cc1` (configuration not stated) [Sulindac], for which the HCT116-GFP viability was determined as 90.2%.

As to `CC(Oc1c(Cl)cccc1Cl)C1=NCCN1` (configuration not stated) [Lofexidine], the HCT116-GFP viability came out at 91.5%.

Regarding `CN(C)CCCO[C@@H]1[C@H]2OC(C)(C)O[C@H]2O[C@@H]1[C@H](O)CO` [Amiprilose hydrochloride], the HCT116-GFP viability stood at 82.7%.

As to `C[C@]12CC[C@@H]3c4ccc(O)cc4CC[C@H]3[C@@H]1C[C@@H](O)[C@@H]2O` [Estriol], the HCT116-GFP viability was 88.1%.

Take `CC[N+](CC)(CC)CCC(O)(c1ccccc1)C1CCCCC1` (configuration not stated) [Tridihexethyl chloride]: the HCT116-GFP viability came to 95.8%.

For the compound `CCc1cccc2c3c([nH]c12)C(CC)(CC(=O)O)OCC3` (configuration not stated) [Etodolac], the HCT116-GFP viability stood at 123%.

Consider `Cc1noc(NS(=O)(=O)c2ccc(N)cc2)c1C` [Sulfisoxazole], for which the HCT116-GFP viability was 93.8%.

Consider `C=CC1=C(C(=O)O)N2C(=O)[C@@H](NC(=O)/C(=N\OCC(=O)O)c3csc(N)n3)[C@H]2SC1` [Cefixime], for which the HCT116-GFP viability stood at 96.5%.

On to `OCCOCCN1CCN(C(c2ccccc2)c2ccc(Cl)cc2)CC1` (configuration not stated) [Hydroxyzine dihydrochloride], for which the HCT116-GFP viability is 88.9%.

For `Cc1ccccc1N1C(=O)c2cc(S(N)(=O)=O)c(Cl)cc2NC1C` (configuration not stated) [Metolazone], the HCT116-GFP viability was found to be 99.7%.
